The campaign covered roughly 3,200 compounds. About 300 (9.4%) showed activity. Only a part is listed here, and it is no random draw.
Test system: A673/TR/shEF
Experiment: cell viability (LOESS-normalised, relative to median of negative controls) (log2 ratio); higher = more viable cells (less compound effect), active = hit call of the paper (over 3 MAD below the median)
Conditions: treatment time: 72 h
Outline: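 For three days, A673/TR/shEF Ewing sarcoma cells in 384-well plates (1,500 per well) were treated with library compounds at two or more concentrations or with DMSO controls, after doxycycline had been added or withheld 24 h beforehand to induce EWS-FLI1 shRNA knockdown. Viability was read by CellTiter-Glo luminescence on an Envision reader. The data were LOESS-corrected per plate, divided by the median of negative controls and log2-transformed.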

[1] = 0.103 µM, library screen: screen3, EWS-FLI1 expression: high (no doxycycline)
[2] = 0.103 µM, library screen: screen3, EWS-FLI1 expression: low (doxycycline-induced shRNA knockdown)
[3] = 0.25 µM, library screen: screen1, EWS-FLI1 expression: high (no doxycycline)
[4] = 0.25 µM, library screen: screen1, EWS-FLI1 expression: low (doxycycline-induced shRNA knockdown)
[5] = 0.25 µM, library screen: screen2, EWS-FLI1 expression: high (no doxycycline)
[6] = 0.25 µM, library screen: screen2, EWS-FLI1 expression: low (doxycycline-induced shRNA knockdown)
[7] = 0.308 µM, library screen: screen3, EWS-FLI1 expression: high (no doxycycline)
[8] = 0.308 µM, library screen: screen3, EWS-FLI1 expression: low (doxycycline-induced shRNA knockdown)
[9] = 0.926 µM, library screen: screen3, EWS-FLI1 expression: high (no doxycycline)
[10] = 0.926 µM, library screen: screen3, EWS-FLI1 expression: low (doxycycline-induced shRNA knockdown)
[11] = 2.5 µM, library screen: screen1, EWS-FLI1 expression: high (no doxycycline)
[12] = 2.5 µM, library screen: screen1, EWS-FLI1 expression: low (doxycycline-induced shRNA knockdown)
[13] = 2.5 µM, library screen: screen2, EWS-FLI1 expression: high (no doxycycline)
[14] = 2.5 µM, library screen: screen2, EWS-FLI1 expression: low (doxycycline-induced shRNA knockdown)
[15] = 2.8 µM, library screen: screen3, EWS-FLI1 expression: high (no doxycycline)
[16] = 2.8 µM, library screen: screen3, EWS-FLI1 expression: low (doxycycline-induced shRNA knockdown)
[17] = 8.3 µM, library screen: screen3, EWS-FLI1 expression: high (no doxycycline)
[18] = 8.3 µM, library screen: screen3, EWS-FLI1 expression: low (doxycycline-induced shRNA knockdown)
[19] = 25 µM, library screen: screen3, EWS-FLI1 expression: high (no doxycycline)
[20] = 25 µM, library screen: screen3, EWS-FLI1 expression: low (doxycycline-induced shRNA knockdown)

Measured: cell viability (log2)

C[C@@](Cc1ccc(O)c(O)c1)(NN)C(=O)O
inactive: [1] 0.0561 | [2] 0.0298 | [3] 0.0574 | [4] 0.0638 | [5] 0.204 | [6] 0.0896 | [7] 0.0627 | [8] 0.0768 | [9] 0.0384 | [10] 0.0316 | [11] 0.0851 | [12] 0.0635 | [13] 0.113 | [14] 0.042 | [15] 0.127 | [16] 0.0372 | [17] 0.109 | [18] 0.129 | [19] 0.131 | [20] 0.096

COc1cc(/C=C/C(=O)/C=C(O)/C=C/c2ccc(O)c(OC)c2)ccc1O
inactive: [3] 0.0822 | [4] 0.0311 | [11] 0.0603 | [12] -0.0173

O=C(O)/C=C/C(O)c1ccc(Cl)cc1 (configuration not stated)
inactive: [5] 0.208 | [6] 0.124 | [13] 0.113 | [14] 0.00489

C[C@]12CCC(=O)C=C1CC[C@@H]1[C@@H]2CC[C@@]2(C)[C@H]1CC[C@]2(O)C(=O)CO
inactive: [5] 0.161 | [6] 0.0623 | [13] 0.245 | [14] 0.0383

NC[C@@H]1O[C@H](O[C@H]2[C@@H](O)[C@H](O[C@@H]3[C@@H](O)[C@H](N)C[C@H](N)[C@H]3O[C@H]3O[C@H](CO)[C@@H](O)C[C@H]3N)O[C@@H]2CO)[C@H](N)[C@@H](O)[C@@H]1O[C@H]1O[C@H](CO)[C@@H](O)[C@H](O)[C@@H]1O
inactive: [3] 0.156 | [4] 0.0397 | [11] 0.0315 | [12] 0.0591

CN(C)CCC(c1ccc(Br)cc1)c1ccccn1 (configuration not stated)
inactive: [3] 0.216 | [4] 0.0645 | [5] 0.203 | [6] 0.122 | [11] 0.106 | [12] 0.0334 | [13] 0.147 | [14] 0.129

COc1ccccc1N1CCN(CCCNc2c(C)c(=O)n(C)c(=O)n2C)CC1
inactive: [5] 0.136 | [6] 0.116 | [13] 0.12 | [14] 0.055

Oc1c(Cl)cc(Cl)c2cccnc12
inactive: [1] 0.144 | [2] 0.0884 | [3] 0.0613 | [4] 0.0797 | [7] 0.145 | [8] 0.0833 | [9] 0.152 | [10] 0.0399 | [11] 0.11 | [12] 0.0736 | [15] 0.0907 | [16] 0.0284 | [17] 0.0697 | [18] 0.0552 | [19] -0.128 | [20] 0.105

CN1CCN(c2nc3ccccn3c(=O)c2/C=C2\SC(=S)N(CC3CCCO3)C2=O)CC1 (configuration not stated)
inactive: [3] 0.134 | [4] 0.0801 | [11] 0.0647 | [12] 0.048

COc1cc(Nc2c(C#N)cnc3cc(OCCCN4CCN(C)CC4)c(OC)cc23)c(Cl)cc1Cl
active: [19] -1.59 | [20] -0.647

CC(=O)N[C@H](C(=O)O)C(C)(C)SN=O
inactive: [5] 0.143 | [6] -0.0423 | [13] 0.085 | [14] 0.0334

CCC1(c2ccccc2)C(=O)NCNC1=O
active: [13] -0.197 | [14] -0.337

O=C(O)CCCCCCCCCCCCC1C=CCC1 (configuration not stated)
inactive: [3] 0.109 | [4] -0.0641 | [11] 0.133 | [12] 0.00345

N#Cc1ccc2c(c1)N(CCCN1CCC(O)CC1)c1ccccc1S2
inactive: [3] 0.0311 | [4] 0.0801 | [11] 0.102 | [12] 0.0718

COc1ccc(NC(=O)/C(=C/c2cccs2)NC(=O)c2cccs2)cc1
inactive: [3] 0.0675 | [4] 0.0437 | [11] 0.0662 | [12] 0.0201

NC(=O)C1CCCc2c1[nH]c1ccc(Cl)cc21 (configuration not stated)
inactive: [1] 0.0735 | [2] 0.0747 | [7] 0.00301 | [8] 0.0206 | [9] 0.00589 | [10] 0.0858 | [15] 0.0139 | [16] 0.0236 | [17] 0.0192 | [18] 0.0625 | [19] 0.0618 | [20] 0.0202

COc1cccc2c1CCC1CC(=O)CC[C@]21C (some centres not stated)
inactive: [3] 0.0982 | [4] 0.0827 | [11] 0.058 | [12] 0.11

NC1CCN(O)C1=O (configuration not stated)
inactive: [5] 0.2 | [6] 0.142 | [13] 0.0598 | [14] 0.0845

COc1ccc(CNS(=O)(=O)c2ccc(NC(C)=O)cc2)cc1
inactive: [3] 0.136 | [4] 0.114 | [11] 0.073 | [12] 0.0317

Reference: the supplement of paper PMC6089552
